The whole screen tested about 270,000 compounds, of which about 5,800 (2.1%) were called active. The inconclusive results got no clear call from the source; some entries with a clear call stand among them for comparison. The call rests on the fitted dose curve; in most records, active means well fitted inhibition curve with a large enough effect; inconclusive means small, poorly fitted or top-dose-only effect; inactive means flat fitted curve, though single readings scatter. A potency beside an inconclusive call is a rough fit, not a confirmed value.
Biological target: Microtubule-associated protein tau (Homo sapiens) (UniProt P10636)
Assay: qHTS for Inhibitors of Tau Fibril Formation, Thioflavin T Binding; further: nearly all actives have a fitted effect of over 55% in size
Details: recombinant tau K18 P301L, heparin-induced fibrillization, ThT fluorescence; series mostly up to 57.4 µM; activity, negative = inhibition: at the top concentration
In short: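 ThT emission at 510 nm, taken 1 hr after adding 30 uM dye, quantifies aggregates formed when 20 uM heparin acts on human tau K18 P301L for 6 hr at 37 C.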
On the % scale 0 is the no-effect control and ±100 the full control effect; potency means the concentration at half of the fitted maximal effect; tags describe the fitted curve by direction and shape.

Chain of UniProt P10636 (P10636 whole entry, looked up): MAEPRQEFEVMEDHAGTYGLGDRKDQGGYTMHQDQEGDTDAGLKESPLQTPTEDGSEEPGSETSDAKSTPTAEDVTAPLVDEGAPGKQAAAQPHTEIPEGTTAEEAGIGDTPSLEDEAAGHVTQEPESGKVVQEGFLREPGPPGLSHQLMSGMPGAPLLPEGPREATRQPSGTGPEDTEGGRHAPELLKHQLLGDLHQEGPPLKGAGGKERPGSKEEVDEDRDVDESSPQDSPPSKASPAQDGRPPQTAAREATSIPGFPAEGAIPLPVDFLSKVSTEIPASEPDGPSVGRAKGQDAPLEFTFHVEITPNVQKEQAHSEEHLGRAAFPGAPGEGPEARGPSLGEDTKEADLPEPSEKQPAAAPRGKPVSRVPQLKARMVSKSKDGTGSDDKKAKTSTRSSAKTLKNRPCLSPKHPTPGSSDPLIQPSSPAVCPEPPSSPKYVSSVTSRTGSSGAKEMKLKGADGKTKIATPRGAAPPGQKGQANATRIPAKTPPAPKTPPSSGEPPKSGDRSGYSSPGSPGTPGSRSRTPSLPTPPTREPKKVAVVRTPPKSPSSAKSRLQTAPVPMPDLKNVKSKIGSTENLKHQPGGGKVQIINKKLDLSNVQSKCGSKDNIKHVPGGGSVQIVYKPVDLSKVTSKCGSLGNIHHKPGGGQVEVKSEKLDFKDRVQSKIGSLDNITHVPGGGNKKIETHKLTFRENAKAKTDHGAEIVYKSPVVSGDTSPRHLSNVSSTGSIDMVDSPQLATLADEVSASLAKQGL

Row | SMILES | Potency | activity, negative = inhibition
1 | CN1CCN(CCC(=O)N/N=C/C=C2\N(C)c3ccccc3C2(C)C)CC1 | inconclusive: 17.8 µM [inhibitor, single point] | –
2 | CC(C)(C)c1ccc(C(=O)N2CC(=O)Nc3ccc(F)cc3C2c2ccc(F)cc2)cc1 (centres undefined) | – | inactive: -19%
3 | CC(C)OC(=O)/C(=C\c1ccc2c(c1)c1ccccc1n2C)NC(=O)c1ccccc1 | inconclusive: 28.2 µM [inhibitor, single point] | –
4 | O=C(C1=C[C@H](C2CC2)C[C@H](OCCCCO)O1)N1CCN(Cc2ccccc2)CC1 | inconclusive: 28.2 µM [inhibitor, single point] | –
5 | COc1cc(C)nc(N2CCCC(C(=O)Nc3ccccc3Br)C2)n1 (centres undefined) | – | inactive: -4.1%
6 | CCCSc1nc2sc3c(c2c(=O)[nH]1)CCN(Cc1ccccc1)C3 | inconclusive: 25.1 µM [inhibitor, partial curve] | –
7 | O=C1CC(Nc2ccc(N3CCOCC3)cc2)C(=O)N1CCc1ccccc1 (centres undefined) | inconclusive: 8.91 µM [inhibitor, partial curve] | –
8 | Cc1ccc(O)c(C(=O)c2cc(C#N)c3nc4ccccc4n3c2)c1 | inconclusive: 2.82 µM [inhibitor, full curve] | –
9 | CCOC(=O)CSc1nc(N)c(C#N)cc1C#N | inconclusive: 15.8 µM [inhibitor, partial curve] | –
10 | Cc1ccc2sc(NNC(=O)C3=COCCO3)nc2c1C | inconclusive: 25.1 µM [inhibitor, partial curve] | –
11 | COc1ccc(-c2nnc3ccc(SC)nn23)cc1 | inconclusive: 2.82 µM [inhibitor, full curve, poor fit] | –
12 | COc1cc(C2/C(=C(\O)c3cc(C)ccc3C)C(=O)C(=O)N2CCN(C)C)ccc1O (centres undefined) | – | inactive: -3.73%
13 | COc1ccc(C2CCCN2C(=O)Nc2ccc(C)c(C)c2)cc1OC (centres undefined) | inconclusive: 7.94 µM [inhibitor, partial curve] | –
14 | CCOc1ccc(/C=C2/SC(=S)N(C(C(=O)O)c3ccccc3)C2=O)cc1OCC (centres undefined) | active: 15.8 µM | –
15 | CC(=O)Nc1ccc(S(=O)(=O)Oc2ccc(/C=N/NC(=O)c3ccc(Cl)cc3)cc2)cc1 | inconclusive: 1 µM [inhibitor, full curve] | –
16 | Cc1c(CCOC(=O)CC23CC4CC(CC(C)(C4)C2)C3)sc[n+]1Cc1ccc([N+](=O)[O-])cc1 | inconclusive: 31.6 µM [inhibitor, partial curve] | –
17 | CC(C)Sc1nnc(Cn2c(=O)sc3ccccc32)n1-c1ccccc1 | – | inactive: -2.93%
18 | CCN(c1ccccc1)S(=O)(=O)c1cc(C(=O)Nc2ccc(Br)cc2)ccc1F | inconclusive: 15.8 µM [activator, partial curve, poor fit] | –
19 | COc1ccccc1NC(=O)C1=C(C)Nc2ncnn2C1c1ccc[nH]1 (centres undefined) | – | inactive: -4%
20 | CC(C)(C)OC(=O)N1CCC(c2c(C(=O)NCCN3CCOCC3)cnn2-c2ccccc2)CC1 | – | inactive: 8.31%
21 | O=[N+]([O-])c1cc(/C=N/n2c(-c3ccncc3)n[nH]c2=S)ccc1Cl | inconclusive: 31.6 µM [inhibitor, partial curve] | –
22 | Cc1csc(NC(=O)CN(C)S(=O)(=O)c2cccc3cccnc23)n1 | – | inactive: -14.6%
23 | CC(C)n1nnnc1-c1cc(Cl)cc(Cl)c1 | – | inactive: 2.05%

Row | SMILES | Potency | activity, negative = inhibition
24 | CSc1nnc(C)c(/C=C/Nc2ccc(Cl)cc2)n1 | active: 15.8 µM | –
25 | CC(C)C(C(=O)Nc1nccs1)N1C(=O)c2ccccc2C1=O (centres undefined) | – | inactive: -2.45%
26 | CCOC(=O)C1(CC2CCCCO2)CCN(Cc2nccn2-c2cccc(C)c2)CC1 (centres undefined) | – | inactive: -15.4%
27 | OC(COc1ccc2c(c1)CCC2)CN1CCN(c2ccccc2F)CC1 (centres undefined) | inconclusive: 15.8 µM [inhibitor, single point] | –
28 | COc1ccc2c(C)cc(SCC(=O)Nc3nsc(-c4ccc(C(C)(C)C)cc4)n3)nc2c1 | inconclusive: 3.98 µM [inhibitor, full curve, poor fit] | –
29 | COc1ccc(NS(=O)(=O)c2ccc(O)c(NC(=O)c3cc4c(C)nn(-c5ccc(F)cc5)c4s3)c2)cc1 | inconclusive: 39.8 µM [inhibitor, single point] | –
30 | O=C(NNc1ccccc1[N+](=O)[O-])Nc1ccc(Cl)c(Cl)c1 | active: 15.8 µM | –
31 | CC(C)(C)C(=O)Cn1ncc(Br)c(Br)c1=O | inconclusive: 14.1 µM [inhibitor, single point] | –
32 | CC1=CCc2c(cc3oc(C)cc(=O)c3c2O)OC1 | inconclusive: 22.4 µM [inhibitor, partial curve] | –
33 | CC(=O)c1ccc(N2CCN(C(=O)CCCn3c(=O)[nH]c4ccccc4c3=O)CC2)cc1 | inconclusive: 0.126 µM [inhibitor, full curve, poor fit] | –
34 | Cn1nnc(NC(=O)c2ccccc2)n1 | – | inactive: 4.98%
35 | Cc1ccc[n+](Cc2ccc([N+](=O)[O-])cc2)c1 | – | inactive: -9.78%
36 | CN1C(=O)CSc2ccc(NC(=O)Nc3ccccn3)cc21 | inconclusive: 8.91 µM [inhibitor, partial curve] | –
37 | CCc1ccc(NC(=O)CSc2nnc(-c3nonc3NC(C)=O)n2-c2ccccc2)cc1 | – | inactive: 2.4%
38 | O=[N+]([O-])C1=C(Nc2cccc3ccccc23)CS(=O)(=O)C1 | – | inactive: -22.6%
39 | COc1ccc(NC(=O)C(=O)NCCN2CCN(C(=O)c3ccco3)CC2)cc1 | – | inactive: -14%
40 | Cc1cccc(OCCn2c(S(=O)(=O)O)nc3ccccc32)c1 | – | inactive: -2.67%
41 | COc1ccc(CNC(=S)Nc2ccc3nc(N4CCOCC4)cc(C)c3c2)cc1 | inconclusive: 2 µM [inhibitor, full curve, poor fit] | –
42 | Cc1cc(-c2nc3ncccc3o2)ccc1NC(=O)COc1ccc(C(C)(C)C)cc1 | inconclusive: 1.58 µM [inhibitor, full curve] | –
43 | Cc1cc(=O)n(CC(C)O)c(O)c1C#N (centres undefined) | inconclusive: 15.8 µM [inhibitor, partial curve] | –
44 | COc1cccc(C(=O)Nc2ccc3c(c2)CCCN3C(=O)c2cccs2)c1OC | inconclusive: 8.91 µM [inhibitor, partial curve] | –
45 | CCc1ccc(-n2c(=O)c3cccnc3n2CC(=O)N(CC)c2cccc(C)c2)cc1 | inconclusive: 20 µM [inhibitor, single point] | –
46 | CCN1/C(=C/c2cc[n+](CCCS(=O)(=O)[O-])c3ccccc23)Sc2ccccc21 | inconclusive: 15.8 µM [inhibitor, partial curve] | –

Row | SMILES | Potency | activity, negative = inhibition
47 | CC1CCN(C(=O)N2c3ccccc3Sc3ccccc32)CC1 | – | inactive: -22.1%
48 | COC(=O)c1ccc(CSc2nnc3n(Cc4ccccc4OC)c(=O)c4ccccc4n23)o1 | inconclusive: 12.6 µM [inhibitor, partial curve] | –
49 | COc1ccc(-n2c(SCC(=O)NCC3CCCO3)nc3ccccc32)cc1 (centres undefined) | – | inactive: -14.3%
50 | [O-]/C(=C(\C(=S)Nc1ccc(SC(F)F)cc1)[n+]1ccccc1)c1ccc(Cl)cc1Cl | inconclusive: 31.6 µM [inhibitor, single point] | –
51 | CC(=O)Nc1ccc(S(=O)(=O)N2CCN(Cc3ccccc3[N+](=O)[O-])CC2)cc1 | – | inactive: 4.14%
52 | O=C(Nc1nc(-c2ccccc2)cs1)c1ccc(=O)[nH]c1 | inconclusive: 1.78 µM [inhibitor, partial curve] | –
53 | CCOC(=O)c1cc(-c2ccccc2)nn1-c1ccccn1 | – | inactive: -2.72%
54 | CC(C)(C)NC(=O)NC(=O)COC(=O)CCC1CCCCC1 | inconclusive: 44.7 µM [inhibitor, single point] | –
55 | C=CCn1c(O)c(N=NC(=O)c2cccnc2)c2cc(Br)ccc21 | inconclusive: 2 µM [inhibitor, full curve, poor fit] | –
56 | NC(N)=NS(=O)(=O)c1ccc(NC(=S)NC(=O)c2sc3ccccc3c2Cl)cc1 | inconclusive: 8.91 µM [inhibitor, partial curve] | –
57 | COC(=O)CCC(=O)OC1(C)C(=O)C=C2C=C(C3CC3)N(CC3CC3)C=C2C1=O (centres undefined) | inconclusive: 12.6 µM [inhibitor, partial curve] | –
58 | CCc1ccc(NC(=O)/C(C#N)=C/c2cc3ccc(C)cc3nc2N2CCOCC2)cc1 | inconclusive: 8.91 µM [inhibitor, partial curve] | –
59 | CC(=O)Nc1c(O)nc(SCC(=O)Nc2ccc(C(C)=O)cc2)[nH]c1=O | inconclusive: 12.6 µM [inhibitor, partial curve] | –
60 | CCCCn1c(-c2csc3c2CCCC3)n[nH]c1=S | inconclusive: 39.8 µM [inhibitor, single point] | –
61 | COc1ccc(-c2[nH]c(-c3ccc(F)cc3)nc2SCC(=O)Nc2ccc(OC)c(OC)c2)cc1 | inconclusive: 14.1 µM [inhibitor, partial curve] | –
62 | CCN1C(=C2C(=O)c3ccccc3C2=O)C=Cc2ccccc21 | inconclusive: 22.4 µM [inhibitor, partial curve] | –
63 | Nc1ccc(C(=O)N/N=C/c2sc(N3CCOCC3)nc2-c2ccccc2)cc1 | inconclusive: 35.5 µM [inhibitor, single point] | –
64 | Cc1cc(-c2n[nH]c(=S)n2/N=C/c2ccco2)n[nH]1 | – | inactive: -14.8%
65 | CCOC(=O)CSc1nc(-c2ccc(OC)cc2)ns1 | inconclusive: 39.8 µM [inhibitor, partial curve, poor fit] | –
66 | CCSc1oc(-c2cccs2)nc1S(=O)(=O)c1ccccc1 | inconclusive: 31.6 µM [inhibitor, single point] | –
67 | CC(=O)Nc1ccc(NC(=O)CN(c2ccc(C(C)C)cc2)S(=O)(=O)c2ccccc2)cc1 | inconclusive: 35.5 µM [activator, single point] | –
68 | Cc1cc(N)n(-c2ccc(Oc3ccccc3)c(S(=O)(=O)O)c2)n1 | – | inactive: -17.7%
69 | CCOC(=O)c1ccc(N2Cc3cc(C)c(C)cc3C2)cc1O | inconclusive: 2.24 µM [inhibitor, full curve] | –
